# Measurements taken from the antibiotic and cytotoxicity screens of Wong et al. (2023).
# The other results are listed elsewhere or left out.
# Experiments:
# HSkMC = human skeletal muscle cells; test: cytotoxicity call (relative viability < 0.9); details: 10 µM
# HepG2 = test: cytotoxicity call (relative viability < 0.9); details: 10 µM
# S. aureus RN4220 = test: growth inhibition call (relative growth <= 0.2); details: 50 µM
Structure (SMILES),cytotoxicity call (HSkMC),cytotoxicity call (HepG2),growth inhibition call (S. aureus RN4220)
CC(=O)N1[C@@H](CO)[C@@H](c2ccccc2)[C@@H]1CNC(=O)CN1CCOCC1,inactive,inactive,inactive
COc1ccc(C#Cc2cnc3c(c2)C(=O)N([C@H](C)CO)C[C@H](C)[C@H](CN(C)C(=O)CN(C)C)O3)cc1,inactive,inactive,inactive
C[C@@H]1CCCCO[C@@H](CN(C)C(=O)Nc2cccc3ccccc23)[C@H](C)CN([C@H](C)CO)C(=O)c2cc(NC(=O)Nc3ccccc3)ccc2O1,inactive,inactive,inactive
C[C@H]1CN([C@@H](C)CO)C(=O)Cc2cc(NC(=O)Cc3ccccc3)ccc2O[C@H]1CN(C)S(=O)(=O)c1ccccc1,inactive,inactive,inactive
C[C@@H]1CN([C@H](C)CO)C(=O)c2cccc(NC(=O)Nc3ccc(C(F)(F)F)cc3)c2O[C@@H]1CN(C)Cc1ccc(C(=O)Nc2ccccc2N)cc1,inactive,inactive,inactive
Cc1ccc(S(=O)(=O)Nc2ccc3c(c2)C(=O)N([C@@H](C)CO)C[C@@H](C)[C@H](CN(C)C(=O)NC2CCCCC2)OCCCC[C@@H](C)O3)cc1,inactive,active,inactive
CN1C(=O)c2cc(NC(=O)c3cnccn3)ccc2OC[C@H]2O[C@@H](CC(=O)NCC3CCCCC3)CC[C@H]21,inactive,inactive,inactive
Cc1noc(C)c1NC(=O)N(C)C[C@H]1Oc2ccc(NC(=O)NC(C)C)cc2C(=O)N([C@H](C)CO)C[C@@H]1C,inactive,inactive,inactive
C[C@@H]1CN([C@H](C)CO)C(=O)Cc2cc(NS(C)(=O)=O)ccc2O[C@H]1CN(C)C(=O)Nc1ccc(F)cc1,inactive,inactive,inactive
O=C1CCC23C=CC(=O)NCCCCNCCCNC(=O)C=Cc4ccc(c2c4)OC3C1 (centres undefined),inactive,inactive,inactive
C[C@H](CO)N1C[C@H](C)[C@@H](CN(C)C(=O)Cc2ccccc2)OCCCC[C@H](C)Oc2ccc(NC(=O)Nc3ccccc3)cc2C1=O,inactive,inactive,inactive
CC(=O)N1Cc2cc(C(=O)NCc3cccc(F)c3)nc(-c3cccc(C4=CCCCC4)c3)c2[C@@H]1CCO,inactive,inactive,inactive
CC(C)C[C@H](NC(=O)N1CCCCCC1)C(=O)N[C@H](Cc1cn(C)c2ccccc12)C(=O)N[C@H](Cc1ccccn1)C(=O)O,inactive,inactive,inactive
C[C@@H]1CCCCO[C@H](CN(C)Cc2ccccc2)[C@@H](C)CN([C@H](C)CO)C(=O)c2cc(NC(=O)CCC(F)(F)F)ccc2O1,inactive,inactive,inactive
C[C@H](CO)N1C[C@H](C)[C@H](CN(C)Cc2ccc(C(=O)Nc3ccccc3N)cc2)Oc2ccc(NC(=O)Nc3ccccc3)cc2C1=O,inactive,inactive,inactive
CC(C)NC(=O)Nc1ccc2c(c1)C(=O)N([C@H](C)CO)C[C@@H](C)[C@H](CN(C)C(=O)Nc1ccc3c(c1)OCO3)O2,inactive,inactive,inactive
CCS(=O)(=O)Nc1ccc2c(c1)C(=O)N(C)C[C@H](OC)[C@@H](C)CN(Cc1nccs1)[C@@H](C)CO2,inactive,inactive,inactive
COc1ccc(S(=O)(=O)N(C)C[C@@H]2Oc3ccc(NC(=O)Nc4cccc5c4CCCC5)cc3CC(=O)N([C@@H](C)CO)C[C@@H]2C)cc1Cl,inactive,inactive,inactive
CC(C)C#Cc1cnc2c(c1)C(=O)N([C@@H](C)CO)C[C@@H](C)[C@H](CN(C)C(=O)c1ccc3c(c1)OCO3)O2,inactive,inactive,inactive
C[C@@H]1CCCCO[C@H](CN(C)C(=O)Nc2ccccc2)[C@@H](C)CN([C@@H](C)CO)C(=O)c2cc(NC(=O)c3ccncc3)ccc2O1,inactive,inactive,inactive
CN(C)c1ccc(NC(=O)CN)cc1,inactive,active,inactive
CO[C@@H]1CN(C)C(=O)c2ccc(NS(C)(=O)=O)cc2OC[C@H](C)N(C(=O)C2CCOCC2)C[C@@H]1C,inactive,inactive,inactive
C[C@H](CO)N1C[C@H](C)[C@H](CN(C)C(=O)Nc2ccc3c(c2)OCO3)OCCCC[C@H](C)Oc2ccc(NS(=O)(=O)c3ccc(Cl)cc3)cc2C1=O,inactive,inactive,inactive
C[C@H](CO)N1C[C@H](C)[C@@H](CN(C)S(=O)(=O)c2ccccc2)Oc2ccc(NS(=O)(=O)c3ccccc3)cc2C1=O,inactive,inactive,inactive
C[C@H](CO)N1C[C@H](C)[C@@H](CN(C)Cc2ccc(C(=O)Nc3ccccc3N)cc2)Oc2ccc(NS(=O)(=O)c3cn(C)cn3)cc2CC1=O,inactive,inactive,inactive
C[C@H]1CCCCO[C@@H](CN(C)Cc2ccc3c(c2)OCO3)[C@@H](C)CN([C@@H](C)CO)C(=O)c2cc(NC(=O)Nc3ccc(C(F)(F)F)cc3)ccc2O1,active,active,inactive
COc1ccc(S(=O)(=O)Nc2ccc3c(c2)C(=O)N([C@@H](C)CO)C[C@@H](C)[C@H](CN(C)S(=O)(=O)c2cn(C)cn2)OCCCC[C@H](C)O3)cc1,inactive,inactive,inactive

Structure (SMILES),cytotoxicity call (HSkMC),cytotoxicity call (HepG2),growth inhibition call (S. aureus RN4220)
COC(=O)c1cn(CC(=O)N2CCN(C)CC2)nn1,inactive,inactive,inactive
C[C@@H]1CCCCO[C@@H](CN(C)C(=O)NC2CCCCC2)[C@H](C)CN([C@H](C)CO)C(=O)c2cc(NC(=O)Nc3ccc4c(c3)OCO4)ccc2O1,inactive,inactive,inactive
CC(C)N1C[C@@H](C)[C@H](CN(C)S(=O)(=O)c2ccc(F)cc2)OCCCC[C@H](C)Oc2ccc(NC(=O)Nc3ccccc3)cc2C1=O,inactive,inactive,inactive
COc1ccc(COCCN2C[C@@H](C)[C@H](CN(C)S(=O)(=O)c3ccc(F)cc3)OCCCC[C@H](C)Oc3ccc(NC(=O)Nc4ccccc4)cc3C2=O)cc1,inactive,inactive,inactive
C[C@@H]1CN([C@@H](C)CO)C(=O)c2cc(C#Cc3ccccc3)cnc2O[C@H]1CN(C)C(=O)CCN1CCCCC1,inactive,inactive,inactive
COc1ccc(CN(C)C[C@@H]2OCCCC[C@@H](C)Oc3ccc(NS(=O)(=O)c4ccc(C)cc4)cc3C(=O)N([C@H](C)CO)C[C@@H]2C)cc1,inactive,inactive,inactive
Cc1cc(F)ccc1S(=O)(=O)N1CCCO[C@@H]1CNC(=O)C(=O)NCc1ccncc1,inactive,inactive,inactive
Cc1noc(C)c1NC(=O)Nc1ccc2c(c1)C(=O)N([C@@H](C)CO)C[C@@H](C)[C@H](CN(C)Cc1ccc(Cl)c(Cl)c1)OCCCC[C@@H](C)O2,inactive,active,inactive
COc1ccc(C#Cc2ccc3c(c2)O[C@@H](CN(C)C(C)=O)[C@@H](C)CN([C@H](C)CO)S3(=O)=O)cc1,inactive,inactive,inactive
Cc1noc(C)c1S(=O)(=O)Nc1ccc2c(c1)C(=O)N([C@H](C)CO)C[C@@H](C)[C@H](CN(C)Cc1ccc(C(=O)O)cc1)O2,inactive,inactive,inactive
COc1ccc(CN(C)C[C@@H]2OCCCC[C@H](C)Oc3ccc(NC(=O)C4CCCCC4)cc3C(=O)N([C@H](C)CO)C[C@@H]2C)cc1,inactive,inactive,inactive
CCC(=O)Nc1cccc([C@@H](CCc2ccc(OC)c(OC)c2)OC(=O)[C@@H]2CCCCN2C(=O)C(=O)C(C)(C)CC)c1,inactive,inactive,inactive
COCC(=O)N1CCN2C[C@H](C(=O)O)CN(Cc3ccoc3)C[C@@H]2C1,inactive,inactive,inactive
C[C@@H]1CN([C@H](C)CO)C(=O)Cc2cc(NC(=O)Nc3ccc(F)cc3)ccc2O[C@@H]1CN(C)S(=O)(=O)c1cn(C)cn1,inactive,inactive,inactive
C[C@H](CO)N1C[C@H](C)[C@@H](CN(C)S(=O)(=O)c2ccc(F)cc2)Oc2ccc(NC(=O)Nc3ccc(C(F)(F)F)cc3)cc2C1=O,inactive,inactive,inactive
COCC(=O)NCc1cc(=O)n2c(n1)CN(c1ncccn1)CCC2,inactive,inactive,inactive
CCC(=O)N1Cc2cc(C(=O)NCc3cccc(F)c3)nc(-c3cccc(C4=CCCC4)c3)c2[C@H]1CCO,inactive,inactive,inactive
CC(C)CC#Cc1cnc2c(c1)C(=O)N([C@@H](C)CO)C[C@H](C)[C@@H](CN(C)S(=O)(=O)c1ccccc1)O2,inactive,inactive,inactive
COc1ccc(S(=O)(=O)Nc2ccc3c(c2)CC(=O)N([C@H](C)CO)C[C@@H](C)[C@H](CN(C)Cc2ccc(-c4ccccc4)cc2)O3)cc1,active,active,inactive
Cc1noc(C)c1S(=O)(=O)Nc1ccc2c(c1)CC(=O)N([C@@H](C)CO)C[C@H](C)[C@H](CN(C)Cc1ccc(C(=O)O)cc1)O2,inactive,inactive,inactive
C[C@H]1CN([C@@H](C)CO)C(=O)Cc2cc(NS(=O)(=O)c3cn(C)cn3)ccc2O[C@@H]1CN(C)S(=O)(=O)c1ccc(F)cc1,inactive,inactive,inactive
C[C@@H](CC(=O)O)n1ccnc1,inactive,inactive,inactive
C[C@H](CO)N1C[C@H](C)[C@@H](CN(C)Cc2ccc(C(=O)Nc3ccccc3N)cc2)OCc2cn(nn2)CCCC1=O,inactive,inactive,inactive
Fc1ccc(CSc2nc3ccccc3[nH]2)c2ccccc12,inactive,inactive,inactive
Cc1noc(C)c1S(=O)(=O)Nc1cccc2c1O[C@@H](CN(C)Cc1ccc(Oc3ccccc3)cc1)[C@@H](C)CN([C@@H](C)CO)C2=O,inactive,inactive,inactive
C[C@@H]1CN([C@@H](C)CO)C(=O)c2cc(NS(=O)(=O)c3ccc(Cl)cc3)ccc2O[C@@H]1CN(C)Cc1ccc(-c2ccccc2)cc1,active,active,inactive
